In the supplement of paper PMC9151546:
Many values rest on one well or one pass, so single values are uncertain.

Columns and labels:
CHO-K1 [1] = assay: micronucleus frequency (% of nucleated events); higher = more micronuclei (genotoxic)
CHO-K1 [2] = assay: relative survival (nuclei to bead ratio vs DMSO control) (% of vehicle control); higher = more surviving cells
Protocol: (§1)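 Flow-cytometric in vitro micronucleus assay (Litron MicroFlow) in CHO-K1 cells in 96-well plates, 19 concentrations (4.5-200 µM, n=1 per concentration). Without S9, cells were exposed for 24 h and sampled at 48 h. With Aroclor 1254-induced rat liver S9, cells were exposed for 3-4 h and sampled at 27-28 h. Read-outs are %MN and %hypodiploid nuclei relative to nucleated events, and relative survival as the nuclei-to-bead ratio versus the 1% DMSO vehicle control (x100).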

CHO-K1 [3] = assay: hypodiploid nuclei frequency (% of nucleated events); higher = more hypodiploid events (aneugenic)
Protocol: as §1
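Throughout, for hypodiploid nuclei frequency (% of nucleated events): hypodiploid nuclei gated on a flow cytometer with 488 nm excitation after SYTOX Green staining, cultures at 37 °C, positive controls vinblastine without S9 and cyclophosphamide with S9.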
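Throughout, for micronucleus frequency (% of nucleated events): cells lysed with nuclei stained by SYTOX Green, then micronucleus-gated events counted against nucleated events by flow cytometry with 488 nm excitation.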
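Throughout, for relative survival (nuclei to bead ratio vs DMSO control): Lysed-cell nuclei stained with SYTOX Green and counted against counting beads by flow cytometry at 488 nm excitation, with vinblastine (no S9) and cyclophosphamide (plus S9) as positive controls.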

O=CCCCC=O [Glutaraldehyde]
Conditions	hypodiploid nuclei frequency, CHO-K1 [3] [%]	micronucleus frequency, CHO-K1 [1] [%]	relative survival, CHO-K1 [2]
concentration: 4.55 (µM), S9 metabolic activation: with S9, exposure time: 3-4 hours	0.22	2.38	118
concentration: 4.55 (µM), S9 metabolic activation: without S9, exposure time: 24 hours	0.68	2.5	73.3
concentration: 5.69 (µM), S9 metabolic activation: with S9, exposure time: 3-4 hours	0.48	1.82	95.9
concentration: 5.69 (µM), S9 metabolic activation: without S9, exposure time: 24 hours	0.72	1.94	70.9
concentration: 7.11 (µM), S9 metabolic activation: with S9, exposure time: 3-4 hours	0.56	2.36	97.9
concentration: 7.11 (µM), S9 metabolic activation: without S9, exposure time: 24 hours	0.72	2.56	71.7
concentration: 8.88 (µM), S9 metabolic activation: with S9, exposure time: 3-4 hours	0.26	1.54	129
concentration: 8.88 (µM), S9 metabolic activation: without S9, exposure time: 24 hours	0.74	2.36	83.1
concentration: 11.1 (µM), S9 metabolic activation: with S9, exposure time: 3-4 hours	0.28	1.54	81.6
concentration: 11.1 (µM), S9 metabolic activation: without S9, exposure time: 24 hours	0.36	1.96	90.5
concentration: 13.9 (µM), S9 metabolic activation: with S9, exposure time: 3-4 hours	0.37	2.36	91.4
concentration: 13.9 (µM), S9 metabolic activation: without S9, exposure time: 24 hours	0.62	1.26	83.8
concentration: 17.4 (µM), S9 metabolic activation: with S9, exposure time: 3-4 hours	0.2	1.7	84.9
concentration: 17.4 (µM), S9 metabolic activation: without S9, exposure time: 24 hours	0.64	1.86	71.7
concentration: 21.7 (µM), S9 metabolic activation: with S9, exposure time: 3-4 hours	0.27	1.13	74.2
concentration: 21.7 (µM), S9 metabolic activation: without S9, exposure time: 24 hours	0.48	2.26	74.5
concentration: 27.1 (µM), S9 metabolic activation: with S9, exposure time: 3-4 hours	0.18	1.48	127
concentration: 27.1 (µM), S9 metabolic activation: without S9, exposure time: 24 hours	0.76	2.24	94.4
concentration: 33.9 (µM), S9 metabolic activation: with S9, exposure time: 3-4 hours	0.24	1.44	145
concentration: 33.9 (µM), S9 metabolic activation: without S9, exposure time: 24 hours	0.68	3.58	88
concentration: 42.4 (µM), S9 metabolic activation: with S9, exposure time: 3-4 hours	0.34	2.04	129
concentration: 42.4 (µM), S9 metabolic activation: without S9, exposure time: 24 hours	0.72	2.86	69.4
concentration: 53 (µM), S9 metabolic activation: with S9, exposure time: 3-4 hours	0.34	1.64	130
concentration: 53 (µM), S9 metabolic activation: without S9, exposure time: 24 hours	0.94	2.86	61.1
concentration: 66.2 (µM), S9 metabolic activation: with S9, exposure time: 3-4 hours	0.06	1.72	115
concentration: 66.2 (µM), S9 metabolic activation: without S9, exposure time: 24 hours	0.76	3.84	56.6
concentration: 82.7 (µM), S9 metabolic activation: with S9, exposure time: 3-4 hours	0.22	1.68	110
concentration: 82.7 (µM), S9 metabolic activation: without S9, exposure time: 24 hours	0.66	3.4	68.4
concentration: 103 (µM), S9 metabolic activation: with S9, exposure time: 3-4 hours	0.36	1.14	80.5
concentration: 103 (µM), S9 metabolic activation: without S9, exposure time: 24 hours	0.69	3.72	54.4
concentration: 129 (µM), S9 metabolic activation: with S9, exposure time: 3-4 hours	0.62	1.96	79
concentration: 129 (µM), S9 metabolic activation: without S9, exposure time: 24 hours	0.88	3.48	47.1
concentration: 162 (µM), S9 metabolic activation: with S9, exposure time: 3-4 hours	1.3	3.04	59.2
concentration: 162 (µM), S9 metabolic activation: without S9, exposure time: 24 hours	–	–	31.9
concentration: 202 (µM), S9 metabolic activation: with S9, exposure time: 3-4 hours	1.63	3.47	45.5
concentration: 202 (µM), S9 metabolic activation: without S9, exposure time: 24 hours	–	–	31.7
